In all, about 360,000 compounds went through this assay and about 16,000 (4.4%) were called active. This list was built around the results that the source calls inconclusive (neither active nor inactive); the mix of calls is not that of the screen. Calls come from the whole dose curve; as a rule, active = well fitted inhibition curve with a large enough effect; inconclusive = small, poorly fitted or top-dose-only effect; inactive = no such curve, though single readings can be large or run the other way. A potency beside an inconclusive call is a rough fit, not a confirmed value.
Target: Bromodomain adjacent to zinc finger domain protein 2B (Homo sapiens) (UniProt Q9UIF8)
Experiment: qHTS Assay for Inhibitors of BAZ2B; note: nearly all actives have a fitted effect of over 60% in size
Details: AlphaScreen BAZ2B-H3K14Ac peptide displacement; series mostly up to 114 µM
How it was run: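 Protein-peptide AlphaScreen: BAZ2B 50 nM, b-H3K14Ac 50 nM, 1x PBS pH 7.4 + 0.01% Tween-20. Preincubation 30 min RT; cpd 30 min RT (top 110 uM); beads 20 min RT, light-protected.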
Potency is the fitted concentration of half-maximal effect; tags give direction and shape of the fitted curve.

UniProt Q9UIF8, sequence (Q9UIF8 whole entry, looked up, the tested form may be a part): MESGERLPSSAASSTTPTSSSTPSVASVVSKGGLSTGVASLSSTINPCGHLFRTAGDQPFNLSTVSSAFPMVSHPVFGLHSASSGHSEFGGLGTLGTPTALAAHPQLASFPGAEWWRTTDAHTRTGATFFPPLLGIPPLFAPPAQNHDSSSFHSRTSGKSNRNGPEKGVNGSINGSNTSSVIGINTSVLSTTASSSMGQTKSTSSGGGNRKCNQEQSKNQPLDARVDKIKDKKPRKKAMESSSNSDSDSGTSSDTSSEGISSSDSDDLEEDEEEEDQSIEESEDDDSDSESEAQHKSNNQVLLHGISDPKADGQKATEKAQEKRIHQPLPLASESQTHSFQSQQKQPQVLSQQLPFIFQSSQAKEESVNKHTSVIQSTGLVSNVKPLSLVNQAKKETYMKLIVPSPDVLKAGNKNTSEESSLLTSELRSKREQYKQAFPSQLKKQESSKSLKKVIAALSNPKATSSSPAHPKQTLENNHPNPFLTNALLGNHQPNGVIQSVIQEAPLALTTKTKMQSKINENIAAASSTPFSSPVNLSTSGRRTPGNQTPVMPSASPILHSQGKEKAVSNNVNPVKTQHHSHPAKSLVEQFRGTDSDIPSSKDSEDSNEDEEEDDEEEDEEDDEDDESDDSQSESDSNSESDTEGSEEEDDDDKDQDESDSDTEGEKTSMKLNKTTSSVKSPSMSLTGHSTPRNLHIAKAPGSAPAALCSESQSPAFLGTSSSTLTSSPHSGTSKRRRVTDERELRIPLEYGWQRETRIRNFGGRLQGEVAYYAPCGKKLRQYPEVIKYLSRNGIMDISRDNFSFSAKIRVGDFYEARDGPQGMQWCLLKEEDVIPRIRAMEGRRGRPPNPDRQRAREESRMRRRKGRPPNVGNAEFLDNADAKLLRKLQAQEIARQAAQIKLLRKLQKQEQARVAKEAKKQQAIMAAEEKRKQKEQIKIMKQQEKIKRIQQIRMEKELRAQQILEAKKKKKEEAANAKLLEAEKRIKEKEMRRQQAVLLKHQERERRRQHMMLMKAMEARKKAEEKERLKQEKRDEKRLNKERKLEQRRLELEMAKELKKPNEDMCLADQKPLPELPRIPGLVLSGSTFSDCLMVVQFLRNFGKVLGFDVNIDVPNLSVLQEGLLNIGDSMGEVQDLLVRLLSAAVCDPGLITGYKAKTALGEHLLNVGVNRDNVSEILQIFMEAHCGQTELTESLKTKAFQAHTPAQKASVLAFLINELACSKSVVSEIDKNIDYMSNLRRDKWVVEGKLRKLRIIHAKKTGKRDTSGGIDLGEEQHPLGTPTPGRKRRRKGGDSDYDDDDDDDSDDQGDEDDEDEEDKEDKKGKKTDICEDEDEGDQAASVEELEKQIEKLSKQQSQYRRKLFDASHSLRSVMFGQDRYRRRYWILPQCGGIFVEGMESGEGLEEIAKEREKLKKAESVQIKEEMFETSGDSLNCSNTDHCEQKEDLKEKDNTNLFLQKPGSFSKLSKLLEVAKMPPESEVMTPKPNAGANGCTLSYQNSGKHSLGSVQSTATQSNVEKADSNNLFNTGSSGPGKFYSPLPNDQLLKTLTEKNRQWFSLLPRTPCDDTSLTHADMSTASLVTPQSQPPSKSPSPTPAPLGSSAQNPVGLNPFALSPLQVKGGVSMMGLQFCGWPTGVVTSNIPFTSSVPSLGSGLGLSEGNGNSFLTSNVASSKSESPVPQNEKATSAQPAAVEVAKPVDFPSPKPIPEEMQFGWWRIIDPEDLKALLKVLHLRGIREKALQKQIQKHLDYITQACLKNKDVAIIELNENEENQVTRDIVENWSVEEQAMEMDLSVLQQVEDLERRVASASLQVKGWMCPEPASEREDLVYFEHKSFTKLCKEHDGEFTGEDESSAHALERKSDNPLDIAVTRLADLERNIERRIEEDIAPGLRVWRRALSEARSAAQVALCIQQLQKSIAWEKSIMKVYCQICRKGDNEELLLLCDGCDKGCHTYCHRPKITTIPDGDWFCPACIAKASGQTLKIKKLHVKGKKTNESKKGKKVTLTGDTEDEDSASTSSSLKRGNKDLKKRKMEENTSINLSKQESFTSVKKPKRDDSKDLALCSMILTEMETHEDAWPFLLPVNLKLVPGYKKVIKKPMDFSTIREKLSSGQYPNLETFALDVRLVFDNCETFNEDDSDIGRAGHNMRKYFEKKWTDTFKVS

Compound | Potency
Nc1nonc1C(=O)N/N=C/c1ccc(-c2ccc(Cl)c(C(=O)O)c2)o1 | active: 79.4 µM
CCN1CCCC1CNCC(O)COc1ccc(C(C)(C)C)cc1C (centres undefined) | inconclusive: 56.2 µM [inhibitor, partial curve, poor fit]
CC(Oc1cc2oc(=O)cc(-c3ccccc3)c2cc1Cl)C(=O)NCC1CCC(C(=O)O)CC1 (centres undefined) | inactive
NC(=NCCc1c[nH]c2ccccc12)NS(=O)(=O)c1ccc2ccccc2c1 | inconclusive: 39.8 µM [inhibitor, partial curve]
CCOC(=O)c1cc(S(=O)(=O)Nc2ccccc2OCC)[nH]n1 | active: 50.1 µM
C1=C(CCNc2ncnc3c2[nH]c2ccccc23)CCCC1 | inconclusive: 89.1 µM [inhibitor, single point]
COc1ccc(S(=O)(=O)N2CCOC2CNC(=O)C(=O)NCc2cccnc2)cc1C (centres undefined) | inactive
CCN(CC)CCSc1nc2ccccc2c(=S)n1-c1ccccc1 | inconclusive: 44.7 µM [inhibitor, partial curve]
Brc1ccc(-c2nnc(-c3ccccc3)c(N3CCSCC3)n2)cc1 | inconclusive: 35.5 µM [inhibitor, full curve, poor fit]
CN(C)c1ccc(/C=C2\SC(=S)N(Nc3ncc(C(F)(F)F)cc3Cl)C2=O)cc1 | inconclusive: 70.8 µM [inhibitor, single point]
O=C(CSc1ccc(Br)cc1)NCC(c1ccco1)N1CCCCC1 (centres undefined) | inactive
CCCCOc1ccc(C(=O)NCC(=O)N2CC(C)OC(C)C2)cc1 (centres undefined) | inactive
O=C(O)c1ccc(N2CCN(C(c3ccccc3)c3ccccc3)CC2)c([N+](=O)[O-])c1 | inconclusive: 50.1 µM [inhibitor, partial curve]
Cc1cc(C)n(-c2nc(Nc3ccccc3)nc(-n3nc(C)cc3C)n2)n1 | active: 79.4 µM
Cc1cc(C)nc(NC(=O)c2ccc([N+](=O)[O-])o2)n1 | inconclusive: 79.4 µM [inhibitor, single point]
COc1ccc(-c2ccc(CCC(=O)O)n2-c2cc(Cl)ccc2O)cc1 | inconclusive: 50.1 µM [inhibitor, partial curve]
CCC(Sc1nc(C)cc(C)n1)C(=O)NC1=NN=C(c2ccc(C)cc2)CS1 (centres undefined) | inactive
Cc1ncc(CN2CCCC(C(=O)Nc3ccc(-c4cccc(F)c4)cc3)C2)n1C (centres undefined) | inconclusive: 44.7 µM [inhibitor, partial curve]
CCOc1cc(/C=N/Nc2nc(-c3cccc(S(=O)(=O)N4CCCC4)c3)cs2)ccc1O | inconclusive: 35.5 µM [inhibitor, partial curve]
